Among the data in PubChem BioAssay (NCI) are growth values, retold here.

The assay relates to HOP-62 NSCLC. As to the kind of experiment: NCI-60 one-dose screen, 48 h (100 = growth as untreated, 0 = no growth, -100 = all killed).

SMILES strings stand for the structures. Some compounds were tested as several samples or in several runs, with calls that do not always agree.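 Cell lines were cultured in 96-well plates, exposed to a single compound concentration, and assessed for percent growth 48 hours later.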 Some entries of the source have several records that differ or are many. The list is limited to them. The calls were made as follows: active = growth percent below 10; inactive = the rest. An entry can have further records. This drug was run again and again over the years, at its own concentration, as given; each value is one run. Counts like (3×) say how often a value occurs here.

`COc1cccc2c1C(=O)c1c(O)c3c(c(O)c1C2=O)C[C@@](O)(C(=O)CO)C[C@@H]3OC1CC(N)C(O)C(C)O1` (stereo not given in full): the growth entry reads like this: (0.25 µM, runs of 2015) “inactive: 19.8, 23 (2×), 23.5, 24.1, 20.7, 22.8 (2×), 31.1, 30.9, 29.2 (2×), 30.1, 24.4 (2×), 28.2 (2×), 28.6, 19.5, 21, 34, 25.7, 11.4, 15.8, 19.9, 16.2, 13.4, 25.1, 17.4, 11.9, 18, 20.6, 13.6, 25 (2×), 27.2, 28.9 (3×), 29.4, 29.6, 25.2 (2×), 12.5, 21.2, 17.5, 16.6, 13.5, 10.1, 18.2, 22.2 (2×), 24.2, 38.8, 29 (2×), 24.7 (3×), 27.6, 36.2 (2×), 41, 26.9, 29.8, 25.9, 21.6, 19.3, 13.9, 16.8, 15.9, 12.2, 25.5, 20.9, 17, 28.7, 38.1, 18.7, 23.1% and active: 2.33, -3.76, 4.5, 5.28, 6.44, 7.41%”; (0.25 µM, runs of 2016) “inactive: 26.7, 25.5, 21.2, 27.4 (3×), 25.2, 26.6 (2×), 31.4, 14, 17.3, 14.8, 14.4, 20.9, 16.3, 22.4, 10.7, 15.5, 15.3, 20.3, 18.8, 17, 19.9, 30.1, 30.8, 29.5, 25.4 (2×), 22.8, 23.9, 25.9, 26.3 (2×), 34.1, 11.9, 21.1, 17.6, 28.8, 14.2, 16, 13.5, 29.6, 24.2 (2×), 26.8, 23.7, 18.7, 21.3, 22.1, 23.3, 29.4, 22.5, 32.8, 27.1, 25.7, 30.6, 23.8, 29.7, 26.9, 30.3, 38, 26.4 (2×), 27 (2×), 32.4 (2×), 37.5, 33.7, 30.4, 29.8, 29.3, 34.9, 28.4, 27.2% and active: 9.53, 9.87, 7.41, 8.5%”; (0.25 µM, runs of 2017) “inactive: 24.8 (2×), 31.1, 33.2, 12.7, 12.4, 15 (2×), 11, 11.9, 22.3, 14, 17.7, 21.3 (2×), 18.6, 13.6, 14.1, 12, 10.8, 13, 16.6, 18.9 (2×), 15.7, 25.3, 26.6, 29.7, 21.5, 27.9, 33, 16, 18.4, 29, 20.9 (2×), 22.7, 22, 13.5, 17.2, 21.9, 10.7, 14.3, 11.6, 16.5 (3×), 10.1, 18.1, 19.2, 25.1, 15.5, 16.2, 15.1, 20.6, 18.2, 20.7, 18.7, 10.6, 12.6, 11.4, 14.5, 12.2, 13.2% and active: 9.91, -2.4, 8.29, 7.66, 2.44, 8.79, 7.06, -1.81, 9.54, 8.59, 3.98, 9.99, 9%”; (0.25 µM, runs of 2018) “active: 8.94, 8.76, 9.84, 7.37, 5.8, 6.21% and inactive: 16.2, 12.4, 17.6, 16.8, 15.3, 19.7, 18.2, 18.6 (2×), 23.4, 32.9, 34.3, 32, 39.1, 29.6, 33.6 (2×), 23.3, 15.8, 19.6, 12.9, 12.1, 24.5, 24.1, 10.7, 14.9, 21.1, 21 (2×), 17.4, 18, 14.5, 24.8, 28.9 (2×), 29, 27.9, 31.9, 19.1, 21.5, 17.5, 12.6%”; (0.25 µM, runs of 2019) “inactive: 18.4, 11.7, 15.9, 24.9, 24.4, 39.1, 35.5, 34.9, 32.6, 23.4, 18.8, 12, 19.2 (2×), 15.7, 16.5, 16.3, 20.1, 25.4, 24, 31.7, 22.2, 33.9, 33.2, 22.5, 17.3, 12.2, 12.3, 11.3 (2×), 14.7, 11 (2×), 19.4, 19.8, 14.2, 15.5, 10.6, 21.6, 17.1, 17.6% and active: 6.54, 3.28, 7.09, 2.56, -7.14, 9.71%”; (0.25 µM, runs of 2020) “inactive: 25.7, 31.5, 26.9, 32, 21.6, 17.6, 17.7, 20.7, 20.4, 14.1, 16.6, 22, 17.9, 27.7, 28.4, 17.4, 23.7, 34.3, 29.8, 33.2, 28.1, 18.8, 20.9, 23.6%”. Moreover, the growth entry reads like this: (0.25 µM, runs of 2021) “inactive: 23.9, 28.7, 21.2, 22 (3×), 35.6, 19.5, 26.7, 22.3, 17.4, 22.8, 18.8, 20.4, 13.7, 17.3, 13.1 (2×), 19.4, 10.1, 25.9, 26.8, 27.2 (2×), 13.3, 18.7, 23, 13.8, 10.7, 11.5, 19.9, 18.2, 16.7, 22.4, 14, 11.6, 13.4, 25.5% and active: 8.45, 9.85, 6.57, 6.38, 9, 4.22, 8.41, 6.64, 7.37, 7.61, 8.11, 4.76, 2.88, 0.731, -2.84, 8.09%”; (0.25 µM, runs of 2022) “active: -14.8, -9.62, -4.55, 5.93, 9.15, 1.91% and inactive: 30.9, 37.5, 14.3, 12.9, 27.2, 27.9, 24.4, 22.1, 20.3, 17.5, 11.3, 11.5, 39.4, 50.1, 23.2, 31.3, 31.4, 54.5, 13.3, 12.1, 13.8, 13.5, 23.7%”; (25 µM, runs of 1991) “active: -24.1, -40.7, -31.8, -52.4, -37.7, -42.6, -39.2, -55.3, -38.6, -12.6, -30.1, -42.3, -36.3, -44.7, -27.5, -46.2, -49.7% and inactive: 97.6%”; (25 µM, runs of 1992) “active: -29.7, -48.7, -64.7, -44.7 (2×), -38.8, -36.9, -54.7 (2×), -22.5, -36.8, -22.4, -55.5, -53.3, -58, -38, -42.2, -38.1, -37.5, -26.4, -35.8, -33.1, -50.3, -65.1, -61.7, -50.9, -47.3, -60.4, -63.6, -84.1, -50.2, -29.6, -45.1, -76.7, -58.1, -18.4, -52, -57.9, -56.6, -42.8, -40.8, -39.4 (2×), -45.4 (2×), -68.8, -40.9, -48.3 (2×), -51.9, -40.5, -16.3, -40.3 (2×), -58.4, -38.6, -47.9, -55.7, -53.2, -28.4, -43.6 (2×), -51, -54.4, -47, -46.9 (2×), -49.6, -52.1 (2×), -71, -30.3 (2×), -54 (2×), -20.7, -51.3 (2×), -31.4, -47.5, -32.7, -38.7, -65.6, -60.7, -79.1, -81.2, -52.7, -21.8, -51.4, -44.2, -40.2, -34.5, -61.8, -42.7, -35, -71.7, -84.6, -84.3, -64.2, -27.3, -53.1, -62.1, -70.5, -42.4, -39.1, -29.3, -55.8, -29.8, -46.2, -62.9, -68.6, -72.1, -19.1, -74.5, -66, -20.9, -59.7% and inactive: 13.9%”; (25 µM, runs of 1993) “active: -24.4, -22.9, -58.9 (2×), -47.3, -51.4, -62.6, -28, -41.4, -67.7, -34.1, 6.3, -18.4, -15.2, -58.2, -22.5, -0.907, -20.8, -58.1, -23.3, -44.1, -12.8, -24.1, -23.4, -33.2, -70.4, -50.5, -25.9, -57.1, -29.7, -57.5, -35.1, -52.3, -37.8 (2×), -32.8, -52, -38.4, -18.9, -15.6, -50.8, -42.1, -65.2, -45.1, -67.2, 4.44, -32.9, -65.6%”; (25 µM, runs of 1994) “active: -33.3, -55.2 (2×), -20.7, -26.3, -50, -33.4, -57.8, -29.4, -37.7, -41.7, -43.1, -25, -34.6, -8.82, -18.7, -39.3, -44.8, -66.3, -36.2, -37.3, -65.9, -25.3, -22.9, -17.2, -62.5, -10.2, -23.7, -46, -3.18, -96.7, -31.5% and inactive: 87.7%”. Further, the growth result reads like this: (25 µM, runs of 1995) “active: -8.76, -10.4, -40.8, -59, -57.6, -22.2 (2×), -36.1, -32.9, 6.09, -53.6, -17.9, -6.21, -30.5, -31.8, -23, -42.2, -34.5, -64, -42.3, -37.3 (2×), -57.4, -23.8, -22, -34.6, -34, 2.01, -50.9, -44.9, -34.9, -48.7, -37.4, -53.7, -69, -60.8, -52.8%”; (25 µM, runs of 1996) “active: -18.3, -34.9, -25.8, -15.8, -4.63, -11.6, -2.46, -21, -7.87, -23.9, -12.8, -18.8, -19.1, -28.4, -36.3, -32.9, -17.5, -23.6, 2.03, -14, -16.8, -31.8, -59, -34.1, -6.46, -23.7, -55.9, -10.7, -31.4, -32.7, -16.7, -30.9, -25.5 (2×), -24.5, -45.2, -47.6, -35.7, -34.3, -34.5, -36.1, -65.6, -25.9, -2.53, 3.89, -23, -46.5, -20.7, -27.9, -15, -12.7% and inactive: 45.3%, 98.3%, 20.1%”; (25 µM, runs of 1997) “active: -9.79, 3.41, -16.4, -23.3, -5.84, -19.3, -24.3, -16.3, -18, -35.7, -20.9, -30.6, -33.3, -46.6, -24.5, -22.7, -29.2, -26.2, -28.6, -17.3, -7.07, -29.9, -36.9, -29, -36.6, -17, -7.48, -34.6, -37, -36.3, -60.8, -62.6, -34.2, -38.4, 8.43, -22.8, -24.2, -33.7, -28.7, -16.7, -12.3%”.
